Reference: PMC5577129
Results are given in words; binding and its absence hold for the method and conditions named. Some binding calls cover weakened binding; strength is not graded here.

Columns and labels:
Test in all cases: two-hybrid; Gal4 vector system (Clontech), pGBKT7 and pGADT7, yeast AH109; growth on SD/-Trp-Leu-His-Ade plates, 3 to 7 days, 30 °C; cells serially diluted
[1] = biological target: T1, AtPRD3 (Arabidopsis thaliana) (UniProt Q0WWX5)
T1 sequence: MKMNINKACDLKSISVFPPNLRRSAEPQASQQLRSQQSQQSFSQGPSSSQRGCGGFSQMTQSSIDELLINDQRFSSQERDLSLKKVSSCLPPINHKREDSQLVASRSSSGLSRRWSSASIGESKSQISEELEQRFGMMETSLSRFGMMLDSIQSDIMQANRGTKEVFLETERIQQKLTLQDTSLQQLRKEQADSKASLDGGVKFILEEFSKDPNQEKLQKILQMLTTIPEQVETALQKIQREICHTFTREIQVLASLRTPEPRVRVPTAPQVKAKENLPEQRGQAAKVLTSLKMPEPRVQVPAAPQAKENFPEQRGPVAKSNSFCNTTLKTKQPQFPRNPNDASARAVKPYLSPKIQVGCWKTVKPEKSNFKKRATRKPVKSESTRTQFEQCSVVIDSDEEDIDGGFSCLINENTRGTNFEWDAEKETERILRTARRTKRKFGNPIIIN

[2] = biological target: T2, AtSPO11-1 (Arabidopsis thaliana) (UniProt Q9M4A2)
T2 sequence: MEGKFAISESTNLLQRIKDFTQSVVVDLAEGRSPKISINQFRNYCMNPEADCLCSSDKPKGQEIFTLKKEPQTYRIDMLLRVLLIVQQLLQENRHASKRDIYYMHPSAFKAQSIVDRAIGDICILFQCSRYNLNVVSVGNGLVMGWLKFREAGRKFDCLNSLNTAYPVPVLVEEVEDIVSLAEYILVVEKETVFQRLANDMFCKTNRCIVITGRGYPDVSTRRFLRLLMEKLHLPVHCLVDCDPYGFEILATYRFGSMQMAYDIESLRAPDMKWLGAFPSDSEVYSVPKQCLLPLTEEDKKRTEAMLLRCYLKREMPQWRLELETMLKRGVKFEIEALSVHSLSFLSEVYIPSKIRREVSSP

[3] = biological target: T3, AtSPO11-2 (170-383 aa) (Arabidopsis thaliana) (UniProt Q9M4A1)
T3 sequence: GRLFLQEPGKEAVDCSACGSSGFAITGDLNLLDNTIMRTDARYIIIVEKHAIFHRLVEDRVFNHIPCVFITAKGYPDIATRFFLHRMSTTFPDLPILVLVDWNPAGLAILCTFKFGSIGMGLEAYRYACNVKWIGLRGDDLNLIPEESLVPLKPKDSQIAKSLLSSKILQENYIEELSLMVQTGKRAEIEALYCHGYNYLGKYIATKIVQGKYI

[4] = biological target: T4, AtDFO (Arabidopsis thaliana) (UniProt Q8RX33)
T4 sequence: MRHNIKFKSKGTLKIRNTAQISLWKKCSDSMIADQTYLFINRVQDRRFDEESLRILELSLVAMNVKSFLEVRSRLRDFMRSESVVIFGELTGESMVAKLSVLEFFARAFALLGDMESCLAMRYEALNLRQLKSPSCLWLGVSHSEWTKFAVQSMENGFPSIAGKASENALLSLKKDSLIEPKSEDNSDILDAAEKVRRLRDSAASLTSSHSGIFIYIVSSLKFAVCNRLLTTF

[5] = biological target: T5, full length AtPRD1 (1–1330 aa) (Arabidopsis thaliana) (UniProt O23277)
T5 sequence: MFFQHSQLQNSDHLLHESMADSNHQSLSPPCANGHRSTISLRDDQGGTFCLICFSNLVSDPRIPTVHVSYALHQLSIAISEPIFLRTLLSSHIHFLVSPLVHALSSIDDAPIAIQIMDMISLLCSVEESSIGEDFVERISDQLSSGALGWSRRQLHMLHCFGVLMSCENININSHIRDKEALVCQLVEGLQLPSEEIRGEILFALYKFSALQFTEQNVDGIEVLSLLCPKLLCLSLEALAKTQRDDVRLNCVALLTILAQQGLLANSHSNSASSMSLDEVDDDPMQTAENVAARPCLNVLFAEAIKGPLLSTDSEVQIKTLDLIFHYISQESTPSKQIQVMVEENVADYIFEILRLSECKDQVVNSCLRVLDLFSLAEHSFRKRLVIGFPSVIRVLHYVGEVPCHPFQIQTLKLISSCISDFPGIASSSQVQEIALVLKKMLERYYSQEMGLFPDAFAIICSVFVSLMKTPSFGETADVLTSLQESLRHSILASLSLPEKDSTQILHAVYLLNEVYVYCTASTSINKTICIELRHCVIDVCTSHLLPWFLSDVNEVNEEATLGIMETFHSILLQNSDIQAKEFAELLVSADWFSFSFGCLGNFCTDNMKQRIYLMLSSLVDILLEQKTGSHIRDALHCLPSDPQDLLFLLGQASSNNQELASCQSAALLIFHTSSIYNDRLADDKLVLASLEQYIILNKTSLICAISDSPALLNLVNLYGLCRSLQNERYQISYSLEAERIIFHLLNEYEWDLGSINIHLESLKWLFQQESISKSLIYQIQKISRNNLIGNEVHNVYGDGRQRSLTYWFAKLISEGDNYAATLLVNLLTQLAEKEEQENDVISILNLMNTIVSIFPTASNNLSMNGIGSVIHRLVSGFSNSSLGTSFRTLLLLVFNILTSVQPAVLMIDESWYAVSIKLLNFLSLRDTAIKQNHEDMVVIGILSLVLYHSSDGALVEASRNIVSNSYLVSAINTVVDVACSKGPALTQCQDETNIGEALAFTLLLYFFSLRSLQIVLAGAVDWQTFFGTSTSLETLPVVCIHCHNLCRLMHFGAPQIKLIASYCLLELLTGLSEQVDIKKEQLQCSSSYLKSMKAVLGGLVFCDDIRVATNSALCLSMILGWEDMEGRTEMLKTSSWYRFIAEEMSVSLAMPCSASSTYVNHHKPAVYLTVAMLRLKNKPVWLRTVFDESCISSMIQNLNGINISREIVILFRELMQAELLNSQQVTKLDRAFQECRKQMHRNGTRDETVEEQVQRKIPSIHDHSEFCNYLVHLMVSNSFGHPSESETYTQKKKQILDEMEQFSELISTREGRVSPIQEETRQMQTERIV

binding [1]: binds
binding [2]: binds
binding [3]: binds
binding [4]: binds
binding [5]: binds
B1: truncated AtPRD1 (1-821 aa) (domain or fragment, UniProt O23277 1-821)
chain: MFFQHSQLQNSDHLLHESMADSNHQSLSPPCANGHRSTISLRDDQGGTFCLICFSNLVSDPRIPTVHVSYALHQLSIAISEPIFLRTLLSSHIHFLVSPLVHALSSIDDAPIAIQIMDMISLLCSVEESSIGEDFVERISDQLSSGALGWSRRQLHMLHCFGVLMSCENININSHIRDKEALVCQLVEGLQLPSEEIRGEILFALYKFSALQFTEQNVDGIEVLSLLCPKLLCLSLEALAKTQRDDVRLNCVALLTILAQQGLLANSHSNSASSMSLDEVDDDPMQTAENVAARPCLNVLFAEAIKGPLLSTDSEVQIKTLDLIFHYISQESTPSKQIQVMVEENVADYIFEILRLSECKDQVVNSCLRVLDLFSLAEHSFRKRLVIGFPSVIRVLHYVGEVPCHPFQIQTLKLISSCISDFPGIASSSQVQEIALVLKKMLERYYSQEMGLFPDAFAIICSVFVSLMKTPSFGETADVLTSLQESLRHSILASLSLPEKDSTQILHAVYLLNEVYVYCTASTSINKTICIELRHCVIDVCTSHLLPWFLSDVNEVNEEATLGIMETFHSILLQNSDIQAKEFAELLVSADWFSFSFGCLGNFCTDNMKQRIYLMLSSLVDILLEQKTGSHIRDALHCLPSDPQDLLFLLGQASSNNQELASCQSAALLIFHTSSIYNDRLADDKLVLASLEQYIILNKTSLICAISDSPALLNLVNLYGLCRSLQNERYQISYSLEAERIIFHLLNEYEWDLGSINIHLESLKWLFQQESISKSLIYQIQKISRNNLIGNEVHNVYGDGRQRSLTYWFAKLISEGDNYAA
